This passage reports GI50 and TGI results from PubChem BioAssay (NCI).

Each structure is given as a SMILES string. Where “and” joins values, the source holds several entries; their conditions need not be identical. Identical values can stand only once.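 Step 1: Grow cells in 96-well plates. Step 2: Expose to compound for 48 hours at 5 concentrations. Step 3: Interpolate endpoints linearly; if unreached, use highest concentration. The concentration for 50% growth inhibition is given as GI50. TGI: total growth inhibition.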

For this assay, the system named is NCI-H322M lung. Kind of assay: NCI tumour cell line growth inhibition, 48 h.
With `NC1(C(=O)N[C@@H](CCO)c2ccc(Cl)cc2)CCN(c2ncnc3[nH]ccc23)CC1`, the GI50 was > 2.1 µM and 25.2 µM; the TGI was > 100 µM. For the compound `Cc1cccc(N=N/C(=N\NC(=O)c2cc(Cl)ccc2O)c2ccc(N(CCC#N)CCC#N)cc2C)c1`, the TGI amounted to 94.9 µM. On the same count and under the same terms, the value for `CC(=O)O[C@@H]1CC[C@@]2(C)C(=O)C34C[C@@]5(C)C([C@@H](C)CCCC(C)C)CCC5(C)[C@](O)(O3)C(=O)[C@H]4C2C1(C)C` (some centres not stated) was 33.3 µM; that for `CCC(C)C1NC(=O)C(NC(=O)C(CC(C)C)N(C)C(=O)[C@@H]2CC(O)CN2C(=O)[C@H](C)O)C(C)OC(=O)[C@H](Cc2ccc(OC)cc2)N(C)C(=O)[C@@H]2CCCN2C(=O)[C@H](CC(C)C)NC(=O)C(C)C(=O)[C@H](C(C)C)OC(=O)CC1O` (some centres not stated) was 2.08 µM. Regarding `COc1cc(C(=O)NN=C2c3ccccc3-c3ccccc32)cc(OC)c1OC`, the GI50 was 5.15 µM and the TGI was 27.7 µM. Consider `O=C(Nc1cccc(-n2ccc3c(NC(=O)c4ccccc4)nccc32)c1)c1ccc(Cl)c(C(F)(F)F)c1`, for which the TGI was 11.3 µM and > 100 µM. On the same count and under the same terms, in the case of `CN1CCN(c2n[nH]c(=O)c3c2nnn3C2CCCCC2)CC1` it was > 100 µM; in that of `COc1cccc(/C=N/[N-]C(N)=O)c1[O-].[Co+2].[OH3+].c1ccncc1`, > 100 µM. On the same count and under the same terms, in the case of `Cc1ccc(S(=O)(=O)Nn2c(S)c(C#N)c(-c3ccc(Cl)cc3)c(C#N)c2=O)cc1` it was > 100 µM; in that of `Cc1ccc(-c2cc(=O)c(=O)[nH][nH]2)cc1`, > 100 µM. On the same count and under the same terms, the value for `O=c1n(CC2CS2)c2ccccc2n1CC1CS1` (configuration not stated) was > 100 µM; that for `CCc1ncc(CO)n1Cc1cccc2ccccc12` was > 100 µM.

As to `O=C(/C=C/C=C/c1ccc2c(c1)OCO2)N/N=C\c1ccc(O)cc1O`, the GI50 is 1.74 µM and the TGI is 16.8 µM.

For the compound `Cn1c(=S)[nH]c(N)c(Cc2ccccc2)c1=O`, the TGI is > 100 µM. On the same count and under the same terms, in the case of `CC[As](CC)SCC1OC(OC(C)=O)C(OC(C)=O)C(OC(C)=O)C1OC(C)=O` (configuration not stated) it was 33.3 µM. On the same count and under the same terms, in the case of `CON[N+]([O-])=NC(C)C` it was > 100 µM. As for `O=C(NN1C(=O)CSC1c1c(Cl)cccc1Cl)C(O)c1ccccc1` (configuration not stated), the GI50 is 65.9 µM and the TGI was > 100 µM. In turn, `Cc1cc(C)nc(NS(=O)(=O)c2ccc(NC(=O)COC(=O)c3cccc4c(=O)c5ccccc5[nH]c34)cc2)n1` returned a TGI of 71.4 µM. Regarding `COc1cc(C2CC(c3cccc(Nc4ccnc5cc(Cl)ccc45)c3)=NN2c2ccccc2)cc(OC)c1OC` (configuration not stated), the GI50 is 53.3 µM and the TGI was > 100 µM. With `O=C(CC(C(=O)c1cccs1)c1ccc2c(c1)OCO2)c1ccccc1` (configuration not stated), the TGI was > 100 µM. The same measure, in the same setting: in the case of `CC(C)(C)CI` it was > 100 µM; in that of `CN1CCc2c(sc3ncn(Nc4ccc(F)cc4)c(=N)c23)C1`, > 100 µM. In the case of `O=C(O)c1ccc(/C=N/N=C2c3ccccc3-c3ccccc32)cc1`, the TGI was > 100 µM.

Regarding `C[C@@H]1CC[C@@]2(C)[C@H](C)/C(=C\COC(=O)/C=C/c3ccc(O)c(O)c3)CC[C@@]12C`, the TGI turned out to be 26.9 µM. For `Nc1c(C(=O)Nc2cccc(C(F)(F)F)c2)sc2nc3c(cc12)CCCCCC3`, the GI50 was 4.96 µM and the TGI stood at 28.6 µM. In the same order, the values of `CCN(CC)CC(O)c1cc(-c2ccc(Cl)cc2)nc2c(C)c(Cl)ccc12` (configuration not stated) are 1.64 µM and 3.05 µM.

Regarding `CC#CC#C/C(=C/C=CC(=O)OC)SC`, the TGI was > 100 µM.

`CCCCCCCCCCCCCCCCCCOc1ccccc1COP(=O)(O)OOCC[N+](C)(C)C`: the GI50 is 6.2 µM and the TGI was 13.2 µM.

For `O=C(Nc1cccc(-n2cc(-c3ccncc3)c(-c3ccc(Cl)c(O)c3)n2)c1)Nc1ccc(Cl)c(Cl)c1`, the GI50 is 2.89 µM and the TGI is > 32.5 µM. As for `CN1CCN(CCC=C2c3ccccc3Sc3ccc(S(=O)(=O)N(C)C)cc32)CC1`, the GI50 is 10.2 µM and 17.5 µM; the TGI was 53 µM and 63 µM. Compound `CC(=O)OCC1OC(O[C@H]2C=C[C@@H](C(=O)OCc3ccccc3)n3c(=O)n(-c4ccccc4)c(=O)n32)C(OC(C)=O)C(OC(C)=O)C1OC(C)=O` (some centres not stated) came in with a TGI of 33.9 µM. The same measure, in the same setting: the value for `COc1nc(NC2OC(CO)C(O)C(O)C2O)c(N)c(=O)[nH]1` (configuration not stated) was > 100 µM. On the same count and under the same terms, in the case of `COCCCNc1c2ccccc2nc2ccccc12` it was 29.3 µM; in that of `Cc1c(Cl)c(C)c(Cl)c(O)c1Cl`, > 100 µM. Same read-out and setting: in the case of `Cc1cccc(-c2nc(-c3cnccn3)n(Cc3ccccc3)n2)c1` it was > 100 µM; in that of `COc1cc(OC)c(/C=N\Nc2nc3ccccc3c(=O)n2-c2ccccc2)c(OC)c1`, 49.2 µM. For `Nc1cc(N)c2nc(NCCc3ccc(Cl)c(Cl)c3)cnc2c1`, the GI50 was 17.3 µM and the TGI turned out to be 32.5 µM. `CCCCCCCCCCCCc1ccsc1-c1ccc(-c2ccc(-c3sccc3CCCCCCCCCCCC)s2)s1`: the TGI is > 100 µM. On to `CN(C)CCCCNc1ccc(NCCCCN(C)C)c2c1C(=O)c1c(O)ccc(O)c1C2=O`, for which the GI50 is 1.54 µM and the TGI was found to be 2.9 µM.

As for `Cc1ccccc1-n1c(CCl)nc2ccc(Br)cc2c1=O`, the TGI was found to be 32.2 µM.

In turn, `CC(C)C(/C=C/c1ccc(Cl)cc1)=N\NC(=O)N/N=C(/C=C/c1ccc(Cl)cc1)C(C)C` came in with a TGI of 95.9 µM. For the compound `COc1ccc(/C=C/C(=O)/C=C(O)/C=C/c2ccc(OC)c(OC)c2)cc1OC`, the GI50 was 9.23 µM and the TGI was > 100 µM.

Regarding `CC1(C)N([O-])[N+](=O)C1(C)O` (configuration not stated), the TGI was > 100 µM.

As for `O=C(Nc1ccc(Cl)cc1)c1cc(S(=O)(=O)N2CCNNC2=O)c(S)cc1Cl`, the TGI was > 100 µM.

As to `CCCCCCc1cc2cc(C(=O)Nc3cccc(F)c3)c(=N)oc2cc1O`, the TGI is 7.86 µM. `COC(=O)c1c2c(c(C)[n+]([O-])c1C)C(=O)C(NCc1ccc(O)cc1)=CC2=O`: the GI50 was 1.52 µM and the TGI turned out to be 2.87 µM. For `CC(C)C1=CC2=C(C(=O)C1=O)C13CCCC(C)(C)C1CC2OC3=O` (configuration not stated), the TGI is > 100 µM. As to `Fc1ccc(N=C2C=CC(=Nc3ccc(F)cc3)c3ccccc32)cc1`, the TGI is > 100 µM.

In the case of `COc1ccc(C=O)cc1OS(=O)(=O)C(F)(F)C(F)(F)C(F)(F)C(F)(F)F`, the TGI is > 100 µM. Consider `Cn1c(=O)c2c(=O)cc(N)[nH]c2n(C)c1=O`, for which the TGI was > 100 µM.

`Nc1nc(N)c2c(n1)CCC(S(=O)(=O)c1ccc3ccccc3c1)C2` (configuration not stated): the TGI was > 95.6 µM.

Turning to `C#CCn1c(=O)ccn(/C(=C/C(=O)OCC)C(=O)OCC)c1=O`, the TGI was > 100 µM.

On to `O=C(N/N=C/c1ccncc1)c1ccc(F)cc1`, for which the GI50 was > 40 µM and the TGI is > 40 µM. For `O=C1OC(c2ccccc2Br)=N/C1=C/c1ccccc1`, the TGI was > 100 µM. As for `C=C1CN2CCc3c([nH]c4ccccc34)C2CC1CC(=O)N(C)C` (configuration not stated), the TGI is > 309 µM.

For `COc1ccc(-c2c3c(nc4nc(SCC(=O)c5ccc(Br)cc5)nc(N)c24)CCCC3)cc1OC`, the TGI was > 100 µM. The same measure, in the same setting: in the case of `COC(=O)Cc1c(C2C(CC(=O)OC)c3ccccc3N2C2OC(CO)C(O)C(O)C2O)[nH]c2ccccc12` (configuration not stated) it was > 100 µM; in that of `CC1=CC[C@@H](C(C)(C)O)C[C@@H]1O`, > 5000 µM; in that of `COc1cc2c(cc1[N+](=O)[O-])C(=O)C(Br)(Br)CCC2`, 30.1 µM. Still for that read-out and setting: the value for `CSC1=Nc2ccccc2N=C(c2ccccc2)C1` was > 100 µM. In the case of `CC(=O)Nc1cc2c3c(cccc3c1)-c1ccccc1-2`, the GI50 was 16.8 µM and the TGI was found to be 55.4 µM.
